Source: PubChem BioAssay AID1460 (National Center for Advancing Translational Sciences (NCATS), 2008)
Screen size: about 270,000 compounds; about 5,800 (2.1%) were called active. This list was built around the results that the source calls inconclusive (neither active nor inactive); the mix of calls is not that of the screen. Calls follow the shape of the dose curve; as a rule, active = well fitted inhibition curve with a large enough effect; inconclusive = small, poorly fitted or top-dose-only effect; inactive = flat fitted curve, though single readings scatter. A potency beside an inconclusive call is a rough fit, not a confirmed value.

molecular target: Microtubule-associated protein tau (Homo sapiens) (UniProt P10636); assay: qHTS for Inhibitors of Tau Fibril Formation, Thioflavin T Binding; settings: recombinant tau K18 P301L, heparin-induced fibrillization, ThT fluorescence; series mostly up to 57.4 µM; also: nearly all actives have a fitted effect of over 55% in size
UniProt P10636, sequence (P10636 whole entry, looked up): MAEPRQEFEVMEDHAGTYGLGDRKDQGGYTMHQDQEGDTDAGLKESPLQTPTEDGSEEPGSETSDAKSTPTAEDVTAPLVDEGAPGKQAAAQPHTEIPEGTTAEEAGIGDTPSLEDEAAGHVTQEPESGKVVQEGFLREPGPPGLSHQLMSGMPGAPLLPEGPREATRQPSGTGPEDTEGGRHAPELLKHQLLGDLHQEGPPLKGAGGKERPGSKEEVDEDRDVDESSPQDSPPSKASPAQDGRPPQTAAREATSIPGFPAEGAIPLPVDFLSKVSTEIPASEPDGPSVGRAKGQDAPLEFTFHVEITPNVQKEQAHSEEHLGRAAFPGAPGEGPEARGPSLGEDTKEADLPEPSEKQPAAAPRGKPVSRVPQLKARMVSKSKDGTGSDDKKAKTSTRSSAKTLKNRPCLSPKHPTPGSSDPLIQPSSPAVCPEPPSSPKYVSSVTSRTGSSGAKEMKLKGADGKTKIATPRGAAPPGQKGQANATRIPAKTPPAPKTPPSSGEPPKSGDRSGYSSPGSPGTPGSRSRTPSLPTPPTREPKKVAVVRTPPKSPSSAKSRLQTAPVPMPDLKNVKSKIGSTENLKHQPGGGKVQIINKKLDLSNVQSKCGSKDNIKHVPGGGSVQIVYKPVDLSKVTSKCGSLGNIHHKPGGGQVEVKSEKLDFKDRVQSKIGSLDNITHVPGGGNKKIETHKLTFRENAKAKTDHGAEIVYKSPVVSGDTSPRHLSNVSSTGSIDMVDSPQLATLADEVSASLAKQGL
How it was run: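 Fibril formation assay: tau K18 P301L at 15 uM with trace Alexa 594 label, heparin inducer 20 uM, pH 7 sodium acetate buffer, 37 C for 6 hr; endpoint ThT signal.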
Potency is read from the fitted curve at half-maximal effect; tags tell the direction and shape of the fitted curve.

Structure (SMILES) | Potency
COc1ccc(C2CC(c3cccs3)=NN2c2ccc(F)cc2)cc1OC (stereo unspecified) | inconclusive: 25.1 µM [inhibitor, single point]
O=C(CSC1=NCCS1)NC(c1ccccc1)c1ccccc1 | active: 15.8 µM
Nc1nc2c(s1)C(=O)CC(c1ccccc1)C2 (stereo unspecified) | inconclusive: 12.6 µM [inhibitor, partial curve]
CC(=O)c1cccc(NC(=O)Cn2nc(C)n3cccc3c2=O)c1 | inconclusive: 25.1 µM [activator, single point]
CC(C)c1ccc(O)c(NC(=S)NC(=O)CCc2ccccc2)c1 | inconclusive: 3.16 µM [inhibitor, partial curve, poor fit]
COc1cnn(Cc2ccccc2)c(=O)c1SCc1ccccc1 | inactive
CCOC(=O)c1c(C)[nH]c(CCC(=O)NCc2ccc(CC)cc2)c1C | inactive
CCOc1ccc(C(=O)Nc2ccc3nc(SCCOc4ccccc4)sc3c2)cc1 | inactive
CCOc1ccc(NC(=O)CNc2ccc(C)cc2Cl)cc1 | inconclusive: 10 µM [inhibitor, partial curve]
Oc1ccc(N=Nc2cccc(Cl)c2)cc1C=Nc1ccc(N2CCOCC2)cc1 | inconclusive: 3.55 µM [inhibitor, full curve]
Cc1cc(-c2ccccc2)nc2[nH]n(-c3ccccc3)c(=O)c12 | inconclusive: 17.8 µM [inhibitor, partial curve]
COC(=O)c1cc(S(=O)(=O)N2CCN(c3cccc(C)c3)C(C)C2)cn1C (stereo unspecified) | inactive
CCOc1ccc(Nc2ncnc3ccc([N+](=O)[O-])cc23)cc1 | active: 10 µM
Cc1oc2cc([N+](=O)[O-])c(O)c([N+](=O)[O-])c2c1C(=O)c1ccc(Cl)cc1 | active: 17.8 µM
O=C(CSc1nnc(-c2ccccc2)o1)c1cccc([N+](=O)[O-])c1 | inconclusive: 0.126 µM [inhibitor, full curve, poor fit]
CCC(c1nnnn1Cc1ccco1)N(Cc1ccccc1OC)Cc1cc2cc(C)ccc2[nH]c1=O (stereo unspecified) | inconclusive: 35.5 µM [inhibitor, single point]
CC1=CC(C)(C)N2C(=O)C(=O)c3cc(OC(=O)c4ccco4)cc1c32 | active: 12.6 µM
CC(C)Cc1ccc(-c2cc(=O)[nH][nH]2)cc1 | inconclusive: 3.55 µM [inhibitor, full curve, poor fit]
COc1ccccc1-c1nc(S(=O)(=O)c2ccc(Cl)cc2)c(N(C)C)o1 | inconclusive: 14.1 µM [inhibitor, partial curve]
CCOc1ccc2nc(N3CCC(C(=O)N4CCN(c5ncccn5)CC4)CC3)sc2c1 | inconclusive: 15.8 µM [inhibitor, partial curve]
COc1ccc(-c2cn3c(C)c(C(=O)Nc4cc(NC(C)=O)ccc4OC)sc3n2)cc1 | inconclusive: 1.12 µM [inhibitor, full curve]
COc1ccc(-c2noc(CC(=O)Nc3ccc(F)cc3F)n2)cc1 | inactive

Structure (SMILES) | Potency
Cc1ccc(-c2nnc(Nc3cccc(O)c3)c3ccccc23)cc1S(=O)(=O)N1CCOCC1 | inconclusive: 3.55 µM [inhibitor, full curve, poor fit]
Cc1cc(C)cc(NCc2cc3c(cc2[N+](=O)[O-])OCO3)c1 | inconclusive: 2.24 µM [inhibitor, partial curve]
COc1ccc(CCNc2nc(-c3sc(C)nc3C)cs2)cc1OC | inconclusive: 4.47 µM [inhibitor, partial curve]
Cc1ccc(CSc2nnc(CCNC(=O)OC(C)(C)C)o2)cc1 | inconclusive: 10 µM [inhibitor, partial curve, poor fit]
Brc1ccccc1-c1nnc(COc2cccc3cccnc23)o1 | inconclusive: 7.94 µM [inhibitor, partial curve]
CCN1CC2=C(OC(N)=C(C#N)C2c2cccs2)/C(=C\c2cccs2)C1 (stereo unspecified) | active: 14.1 µM
CCC(=NCc1ccccc1)C1=C(O)C(C(=O)OC)C(C)(C)CC1=O (stereo unspecified) | inconclusive: 39.8 µM [inhibitor, single point]
CC(=O)Nc1ccc2nc(NC(=O)COc3ccccc3C)sc2c1 | inconclusive: 25.1 µM [inhibitor, partial curve]
Cn1c(SCc2ccc([N+](=O)[O-])cc2)nc2c(c1=O)SCC2 | inconclusive: 14.1 µM [inhibitor, partial curve]
CSc1nc2ccc(NC(=O)c3ccc(=O)n(C)n3)cc2s1 | inconclusive: 8.91 µM [inhibitor, partial curve]
COc1cc(/C=C/c2cc(OC(C)=O)c3ccccc3n2)c(OC(C)=O)c([N+](=O)[O-])c1 | active: 3.16 µM
CCCCc1ccc(N=N/C(C(=O)Nc2ccccc2OC)=C(/C)O)cc1 | inconclusive: 7.08 µM [inhibitor, full curve]
Cc1ccc(N2C(=O)c3ccccc3C2C(=O)c2ccc(O)cc2O)cc1 (stereo unspecified) | inconclusive: 28.2 µM [inhibitor, single point]
O=c1cc(-c2ccc(O)c(-c3c(O)cc(O)c4c(=O)cc(-c5ccc(O)cc5)oc34)c2)oc2cc(O)cc(O)c12 | active: 14.1 µM
O=S(=O)(Nc1nc2c(s1)CCCC2)c1ccc2ccccc2c1 | inactive
Cc1cccc(OCC(=O)Nc2ccc(Cl)c(-c3nc4ncccc4o3)c2)c1C | inconclusive: 0.794 µM [inhibitor, full curve]
CCCC(C(=O)n1nc(C)cc1C)C(NS(=O)(=O)c1ccc(C)cc1)c1ccccc1 (stereo unspecified) | inconclusive: 25.1 µM [inhibitor, partial curve]
CCOP(=O)(c1ccccc1)c1nc(-c2ccccc2C)oc1N1CCCCC1 (stereo unspecified) | inconclusive: 39.8 µM [inhibitor, single point]
CCOc1ccc2nc(N/C(N)=N/C(=S)Nc3ccc(OC)cc3)nc(C)c2c1 | inconclusive: 6.31 µM [inhibitor, partial curve]
N#CC1=C(S)N=C(N)C(c2nc(-c3ccccc3)cs2)C12CCCCC2 (stereo unspecified) | inconclusive: 15.8 µM [inhibitor, partial curve]
Cc1ccc2nc(N3CCC(C(=O)N4CCN(c5cccc(Cl)c5)CC4)CC3)[nH]c2c1 | inconclusive: 14.1 µM [inhibitor, partial curve]
CCOC(=O)CC(=O)CSc1ncnc2c1cnn2-c1ccccc1 | inconclusive: 15.8 µM [inhibitor, partial curve]

Structure (SMILES) | Potency
CC(C)Nc1ccc(-c2nc(-c3ccco3)no2)cc1[N+](=O)[O-] | inactive
Cc1ccc(/C=N/n2c(-c3ccc(Cl)cc3)n[nH]c2=S)o1 | inactive
CCN(CC)c1ccc(/C=N/NC(=O)c2ccoc2C)c(O)c1 | inconclusive: 11.2 µM [inhibitor, partial curve]
c1ccc(Nc2c(-c3c[nH]c4ccccc34)nc3ccccn23)cc1 | inconclusive: 0.398 µM [inhibitor, full curve]
O=C1C(=O)c2c(C(=O)c3ccccc3)coc2-c2ccccc21 | active: 2.51 µM
O=C(COc1ccccc1)Nc1ccc(N2CCN(C(=O)c3cccs3)CC2)cc1 | inconclusive: 5.01 µM [inhibitor, partial curve]
O=C(Nc1sc2c(c1C(=O)NCc1ccco1)CCCC2)c1cc(=O)c2ccccc2o1 | inconclusive: 10 µM [inhibitor, partial curve, poor fit]
O=C(N/N=C/c1ccccc1Cl)c1cccc(F)c1 | inconclusive: 15.8 µM [inhibitor, single point]
COC(=O)CSc1nc2c(c(-c3ccco3)c1C#N)CCCC2 | inconclusive: 25.1 µM [inhibitor, single point]
Cc1cc(O)c(C(C)C)cc1N=C1CSC(=O)N1 | inconclusive: 35.5 µM [inhibitor, single point]
CNC(=S)N/N=C/c1ccc(-c2ccc(Cl)c([N+](=O)[O-])c2)o1 | inconclusive: 1.12 µM [inhibitor, full curve]
O=C(Nc1nc2ccc(S(=O)(=O)N3CCCC3)cc2s1)C1CCCCC1 | inactive
COCCN1C=C2C(=O)C(C)(OC(=O)CCc3ccccc3)C(=O)C=C2C=C1c1ccc(C#N)cc1 (stereo unspecified) | inconclusive: 15.8 µM [inhibitor, partial curve]
O=C(CN1CC(=O)Nc2ccccc21)NCCc1ccc(Cl)cc1Cl | inconclusive: 22.4 µM [inhibitor, partial curve]
Nc1ccc2nn(-c3cccc4ccccc34)nc2c1 | inconclusive: 15.8 µM [inhibitor, single point]
Cn1nccc1C(=O)Nc1sc2c(c1C(N)=O)CCCC2 | inconclusive: 3.55 µM [inhibitor, partial curve]
Cc1nc(Oc2ccc(F)cc2Cl)c2oc3ccccc3c2n1 | inconclusive: 15.8 µM [inhibitor, single point]
O=[N+]([O-])c1cc(Cl)ccc1-c1nc(-c2ccccc2)no1 | inactive
CCC(=O)N1CCc2cc(Br)cc(S(=O)(=O)CCC(=O)NCc3ccc(Cl)cc3)c21 | inconclusive: 39.8 µM [inhibitor, single point]
O=C(CN1C(=O)COc2ccccc21)Nc1ccc(F)cc1 | inconclusive: 28.2 µM [inhibitor, single point]
Cc1cc(=O)oc2cc(OCc3ccc(C(=O)OCC(=O)Nc4ccc(N(C)C)cc4)cc3)ccc12 | inconclusive: 0.794 µM [inhibitor, full curve]
O=C(COc1ccccc1)Nc1ccc2c(c1)nc1n2CCOC1 | inconclusive: 5.01 µM [inhibitor, partial curve]
